Data from patent US11178870B2 (priority 2017, dated 2021).

Tests used:
Format in all cases: in vivo
[1] = tested on: Botrytis cinerea; experiment: Test Example B: Gray mold on tomato; conditions: for Test B control value (gray mold on tomato): class of control value, Table 7; for control value, Test B (gray mold on tomato): Table 7, Test B; for Test B control value: Gray mold on tomato
[2] = tested on: Alternaia brassicicola; experiment: Test Example C: Alternaria sooty spot on cabbage; conditions: for Test C control value (Alternaria sooty spot on cabbage): class of control value, Table 7; for control value, Test C (Alternaria sooty spot on cabbage): Table 7, Test C; for Test C control value: Alternaria sooty spot on cabbage
[3] = tested on: Blumeria graminis f. sp. hordei; experiment: Test Example D: Powdery mildew on barley; conditions: for Test D control value (powdery mildew on barley): class of control value, Table 7; for control value, Test D (powdery mildew on barley): Table 7, Test D; for Test D control value: Powdery mildew on barley
[4] = tested on: Puccinia recondita; experiment: Test Example E: Brown rust on wheat; conditions: for Test E control value (brown rust on wheat): class of control value, Table 7; for control value, Test E (brown rust on wheat): Table 7, Test E; for Test E control value: Brown rust on wheat
[5] = tested on: Plasmopara viticola; experiment: Test Example G: Downy mildew on vine; conditions: for Test G control value (downy mildew on vine): 250 ppm spray, investigated 7 to 10 days after inoculation; for Test G control value (downy mildew on vine) / Test G control value: 2.5 ml/pot; for control value, Test G (downy mildew on vine): 250 ppm sprayed (2.5 ml/pot) before inoculation, assessed 7 to 10 days after inoculation; for Test G control value: Downy mildew on vine, 250 ppm sprayed, 7 to 10 days after inoculation

Compound | Test B control value (gray mold on tomato) [1] | Test C control value (Alternaria sooty spot on cabbage) [2] | Test D control value (powdery mildew on barley) [3] | Test E control value (brown rust on wheat) [4] | Test G control value (downy mildew on vine) [5] | control value, Test B (gray mold on tomato) [1] | control value, Test C (Alternaria sooty spot on cabbage) [2] | control value, Test D (powdery mildew on barley) [3] | control value, Test E (brown rust on wheat) [4] | control value, Test G (downy mildew on vine) [5] | further results
CCn1c(-c2c(F)cccc2F)c(-c2sccc2Cl)ccc1=O [Compound 393] | H (H shows the control value more than 50%) | H (H shows the control value more than 50%) | L (L shows the control value of 50% or less) | H (H shows the control value more than 50%) | H (H shows the control value more than 50%) |  |  |  |  |  | 
O=c1ccc(-n2cc(Cl)cn2)c(-c2ccc(F)cc2Cl)n1CC(F)F [Compound 233] |  |  |  |  |  | H (H shows the control value more than 50%) | H (H shows the control value more than 50%) | H (H shows the control value more than 50%) | H (H shows the control value more than 50%) | L (L shows the control value of 50% or less) | 
CCn1c(-c2c(F)cccc2F)c(-c2sccc2Br)cc(Br)c1=O [Compound 416] | H (H shows the control value more than 50%) | H (H shows the control value more than 50%) | H (H shows the control value more than 50%) | H (H shows the control value more than 50%) | H (H shows the control value more than 50%) |  |  |  |  |  | 
CCn1c(-c2c(F)cc(OC)cc2F)c(-n2cnc(Cl)n2)cc(Cl)c1=O [Compound 267] |  |  |  |  |  | H (H shows the control value more than 50%) | H (H shows the control value more than 50%) | H (H shows the control value more than 50%) | H (H shows the control value more than 50%) | L (L shows the control value of 50% or less) | 
CCn1c(-c2ccc(F)cc2Br)c(-n2cc(F)cn2)cc(Br)c1=O [Compound 353] |  |  |  |  |  | H (H shows the control value more than 50%) | H (H shows the control value more than 50%) | H (H shows the control value more than 50%) | H (H shows the control value more than 50%) | L (L shows the control value of 50% or less) | 
CCn1c(-c2c(F)cccc2F)c(-c2sccc2Cl)cc(Br)c1=O [Compound 397] | H (H shows the control value more than 50%) | H (H shows the control value more than 50%) | H (H shows the control value more than 50%) | H (H shows the control value more than 50%) | L (L shows the control value of 50% or less) |  |  |  |  |  | 
CCn1c(-c2c(F)cc(F)cc2F)c(-c2ocnc2Cl)cc(Br)c1=O [Compound 107] |  |  |  |  |  |  |  |  |  |  | Test B control value [1]: H (H shows the control value more than 50%); Test C control value [2]: H (H shows the control value more than 50%); Test D control value [3]: H (H shows the control value more than 50%); Test E control value [4]: H (H shows the control value more than 50%); Test G control value [5]: H (H shows the control value more than 50%)
CCn1c(-c2c(F)cccc2F)c(-c2cnc(Cl)o2)cc(Cl)c1=O [Compound 87] |  |  |  |  |  |  |  |  |  |  | Test B control value [1]: L (L shows the control value of 50% or less); Test C control value [2]: H (H shows the control value more than 50%); Test D control value [3]: L (L shows the control value of 50% or less); Test E control value [4]: L (L shows the control value of 50% or less); Test G control value [5]: L (L shows the control value of 50% or less)
CCn1c(-c2c(F)cccc2F)c(-c2ccsc2Cl)cc(Cl)c1=O [Compound 298] |  |  |  |  |  | H (H shows the control value more than 50%) | H (H shows the control value more than 50%) | L (L shows the control value of 50% or less) | H (H shows the control value more than 50%) | L (L shows the control value of 50% or less) | 
Cc1sccc1-c1ccc(=O)n(CC(F)F)c1-c1c(F)cccc1F [Compound 424] | H (H shows the control value more than 50%) | H (H shows the control value more than 50%) | H (H shows the control value more than 50%) | H (H shows the control value more than 50%) | H (H shows the control value more than 50%) |  |  |  |  |  | 
O=c1c(Cl)cc(-c2cc(Cl)sc2Br)c(-c2c(F)cccc2F)n1CC(F)F [Compound 349] |  |  |  |  |  | H (H shows the control value more than 50%) | H (H shows the control value more than 50%) | L (L shows the control value of 50% or less) | H (H shows the control value more than 50%) | H (H shows the control value more than 50%) | 
CCn1c(-c2c(F)cccc2F)c(-c2sccc2C)ccc1=O [Compound 359] |  |  |  |  |  | H (H shows the control value more than 50%) | H (H shows the control value more than 50%) | H (H shows the control value more than 50%) | H (H shows the control value more than 50%) | H (H shows the control value more than 50%) | 
O=c1c(Br)cc(-c2ccsc2Cl)c(-c2c(F)cccc2F)n1CC(F)F [Compound 402] | L (L shows the control value of 50% or less) | H (H shows the control value more than 50%) | L (L shows the control value of 50% or less) | L (L shows the control value of 50% or less) | L (L shows the control value of 50% or less) |  |  |  |  |  | 
CCn1c(-c2c(F)cc(NC)cc2F)c(-c2cnco2)cc(Cl)c1=O [Compound 119] |  |  |  |  |  |  |  |  |  |  | Test B control value [1]: L (L shows the control value of 50% or less); Test C control value [2]: H (H shows the control value more than 50%); Test D control value [3]: L (L shows the control value of 50% or less); Test E control value [4]: L (L shows the control value of 50% or less); Test G control value [5]: L (L shows the control value of 50% or less)
CN1C(=O)CCC(c2ccsc2Br)=C1c1c(F)cccc1F [Compound 454] | H (H shows the control value more than 50%) | H (H shows the control value more than 50%) | H (H shows the control value more than 50%) | H (H shows the control value more than 50%) | H (H shows the control value more than 50%) |  |  |  |  |  | 
